# About 4,200 (1.3%) of roughly 330,000 compounds were called active. This list was built around the results that the source calls inconclusive (neither active nor inactive); the mix of calls is not that of the screen. Calls come from the whole dose curve; as a rule, active = well fitted activation curve with a large enough effect; inconclusive = small, poorly fitted or top-dose-only effect; inactive = no such curve, though single readings can be large or run the other way. A potency beside an inconclusive call is a rough fit, not a confirmed value.
# Assay: qHTS screen for small molecules that induce genotoxicity in human embryonic kidney (HEK293T) cells expressing luciferase-tagged ELG1; note: nearly all actives have a fitted effect of over 60% in size
# Conditions: HEK293T ELG1-luciferase reporter, luminescence, 16 h; series mostly up to 46 µM
# How it was run: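 DMSO vehicle served as control against compound-treated ELG1-luciferase HEK293T cells; exposure lasted 16 hr at 37 °C and 5% CO2, followed by ONE-Glo luminescence detection after 30 min.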
# Potency is the fitted concentration of half-maximal effect; tags give direction and shape of the fitted curve.
row,Structure (SMILES),Potency
1,CN(C)c1ccc(N/C=C/C(=O)C(C)(C)C)cc1,"inconclusive: 18.4 µM [activator, single point]"
2,c1ccc(OCCCn2nnc(-c3ccc(N4CCOCC4)cc3)n2)cc1,"inconclusive: 20.6 µM [activator, partial curve, poor fit]"
3,O=c1nc(/C=C/c2ccc(O)c(O)c2)oc2ccccc12,active: 20.6 µM
4,CCn1c2ccccc2c2cc(Nc3cc(C)nc4ncnn34)ccc21,"inconclusive: 2.59 µM [activator, full curve, poor fit]"
5,CCCCn1cnc2c(oc3ccccc32)c1=O,"inconclusive: 11.6 µM [activator, partial curve, poor fit]"
6,O=C(/C=C/c1ccc2c(c1)OCCO2)c1ccccc1,"inconclusive: 18.3 µM [activator, partial curve]"
7,Cc1ccc2c(c1)N(C(C)C(=O)NCCc1ccccc1)C(=O)CO2 (configuration not stated),"inconclusive: 32.6 µM [activator, partial curve, poor fit]"
8,COc1ccccc1C(=O)Nc1ccc2oc(-c3ccc(F)cc3)nc2c1,"inconclusive: 10 µM [activator, partial curve, poor fit]"
9,CN=C1SC(CC(=O)Nc2ccc(N3CCOCC3)cc2)C(=O)N1C (configuration not stated),inactive
10,CC1=C(C(=O)Nc2ccccn2)C(c2ccc(Cl)cc2Cl)NC(=S)N1 (configuration not stated),"inconclusive: 3.26 µM [activator, full curve]"
11,Cn1c(=O)cc(OCCCC(=O)NCc2ccco2)c2ccccc21,active: 18.4 µM
12,COC(=O)c1ccccc1NC(=O)Cn1c(=O)oc2ccc(Cl)cc21,inactive
13,Cc1nn(C)cc1CNC(=O)Nc1ccc(Cl)c(Cl)c1,active: 13 µM
14,Clc1ccccc1CSc1snnc1-c1ccccc1,"inconclusive: 20.6 µM [activator, partial curve, poor fit]"
15,CC(C)Sc1nc(N)c2c3c(sc2n1)CN(C)CC3,"inconclusive: 18.4 µM [activator, partial curve]"
16,CCc1ccc(N=Nc2ccc(O)c3[nH]cnc23)cc1,"inconclusive: 23.1 µM [activator, single point]"
17,COc1ccc(-c2cc3nc4c(c(=O)n3[nH]2)CCC4)cc1,"inconclusive: 14.6 µM [activator, partial curve]"
18,CN(C)c1ccc(C(=S)NCc2ccco2)cc1,active: 0.461 µM
19,COc1ccc(Cc2nc3ccc(C(=O)N4CCCC4)cc3o2)cc1,"inconclusive: 10.3 µM [activator, single point]"
20,CNc1snc(C)c1C(=O)OCC(=O)c1ccc(OC)c(F)c1,inactive
21,COc1ccc(N2CCN(S(=O)(=O)c3ccc4oc(=O)ccc4c3)CC2)cc1,inactive
22,CCOc1ccc(N=C2SCCCN2C(=O)c2c(CC)noc2C)cc1,inactive
23,CC(=O)N1N=C(c2ccc(Cl)cc2)OC1c1ccc(C(C)C)cc1 (configuration not stated),"inconclusive: 18.4 µM [activator, partial curve, poor fit]"
24,Cc1ccc(NC(=O)CCNC(=O)c2ccccc2Cl)nc1,inactive

row,Structure (SMILES),Potency
1,Cc1cccc(Nc2nnc(SCC(=O)c3ccc(O)cc3O)s2)c1,"inconclusive: 25.9 µM [activator, partial curve, poor fit]"
2,Cc1ccc(C)c(Cn2nnc3c(=O)[nH]c(C4CCN(C(=O)c5cccs5)CC4)nc32)c1,inactive
3,COc1ccc2nc(-c3ccccc3)cc(OC)c2c1,"inconclusive: 32.6 µM [activator, partial curve, poor fit]"
4,O=C(c1cc2ccccc2oc1=O)N(Cc1cccs1)C1CCS(=O)(=O)C1 (configuration not stated),active: 18.4 µM
5,CCOC(=O)Cn1c(=O)oc2cc(S(=O)(=O)N3CCc4ccccc43)ccc21,inactive
6,N#Cc1ccc(N/N=C/c2cn(-c3ccccc3)nc2-c2ccccc2)c([N+](=O)[O-])c1,"inconclusive: 8.2 µM [activator, partial curve]"
7,CC1CCN(Cc2c(C(=O)N/N=C/c3cc(Br)ccc3O)nnn2-c2nonc2N)CC1,inactive
8,Cc1cc(C(=O)COc2cccnc2[N+](=O)[O-])c(C)n1Cc1cccs1,"inconclusive: 18.3 µM [activator, partial curve, poor fit]"
9,c1cc2c(cc1CNc1ccc(N3CCOCC3)cc1)OCO2,"inconclusive: 14.6 µM [activator, partial curve, poor fit]"
10,O=C(c1ccccc1F)n1c2c(c3ccccc31)CCCC2,inactive
11,COc1ccc(C(=O)NCC(=O)c2ccccc2)cc1,active: 9.2 µM
12,CCCCN1C(=O)C(=O)N(c2ccccc2)C1=S,"inconclusive: 11.6 µM [activator, partial curve]"
13,Cc1c(/C=C/C(=O)c2ccccc2)cnn1C,"inconclusive: 20.6 µM [activator, partial curve, poor fit]"
14,C=CCn1c(COc2ccc(OC)cc2)nc2ccccc21,"inconclusive: 16.4 µM [activator, partial curve, poor fit]"
15,CCOc1ccc(NC(=O)CN(C)C(=O)c2cc(-c3ccc(OC)cc3)nc3ccccc23)cc1OCC,inactive
16,CCCn1nnc(NC(=O)c2ccc(OC)cc2)n1,active: 18.4 µM
17,O=C(COc1ccc(Br)cc1Br)NC1CCS(=O)(=O)C1 (configuration not stated),inactive
18,CCOC(=O)/C(=N/Nc1ccc(C)cc1)S(=O)(=O)c1ccc(Cl)cc1,"inconclusive: 10.3 µM [activator, partial curve]"
19,Cc1csc2nc(CCNS(=O)(=O)c3cccs3)cn12,active: 20.6 µM
20,C/C(=N\NC(=O)c1cc(-c2cccnc2)nc2ccccc12)c1ccc(O)cc1O,"inconclusive: 14.6 µM [activator, partial curve, poor fit]"
21,CCOc1ccc(CN2C(=O)c3ccccc3C2=O)cc1C(=O)N1CCC(C(N)=O)CC1,inactive
22,Oc1c(CN2CCCC2)cc(COCc2ccccc2)c2cccnc12,"inconclusive: 20.6 µM [activator, single point]"
23,CCOc1ccc2nc(/N=C/c3c(C)[nH]n(-c4ccccc4)c3=O)sc2c1,"inconclusive: 18.4 µM [activator, partial curve, poor fit]"

# Reference: PubChem BioAssay AID504466 (National Center for Advancing Translational Sciences (NCATS), 2011)
